58 compounds from ChEMBL document CHEMBL1201862, “PubChem BioAssay data set” (2004) can be followed below.

Molecules are shown by their SMILES.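 Each compound was tested at five concentrations against cells in 96-well plates for 48 hours. GI50 marks 50% less growth.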 Activity calls are given as the source filed them. No stated cut-off is given here; in the data, active = GI50 up to about 1.1 µM and inactive = higher. Some results are limits rather than exact numbers.

This test relates to NCI-H322M. Briefly: growth of human tumour cells (NCI), 48 h.
On to `CC1(C)N=C(N)N=C(N)N1c1ccc(OCCCOc2ccccc2)c(Cl)c1`, for which the GI50 is active: 0.237 µM.

With `Oc1c(CN2CCOCC2)ccc(CN2CCOCC2)c1O`, the GI50 is inactive: 30.2 µM.

Turning to `CC(=O)c1ccc(Nc2c3c(nc4ccccc24)CCCC3)cc1`, the GI50 was inactive: 27.9 µM.

On to `CCn1c2ccccc2c2cc(NC(=O)c3c(C)[nH]c(=O)[nH]c3=S)ccc21`, for which the GI50 is inactive: 56.1 µM.

`N=C(c1ccccc1)N1CCCCC1`: the GI50 was inactive: > 100 µM.

In the case of `Cc1cc2c(O)c(c1)COCc1cc(C)cc(c1O)COCc1cc(C)cc(c1O)COC2`, the GI50 is inactive: > 100 µM.

Consider `CC(=O)O[C@H]1CCC2[C@@H]3CCC4Nc5[nH]ncc5C[C@]4(C)C3CC[C@@]21C` (stereo partly drawn), for which the GI50 was inactive: > 100 µM.

On to `O=C1/C(=C/c2cccs2)NC(=S)N1CN1CCCC(CO)C1` (stereo not drawn), for which the GI50 was inactive: > 100 µM.

For the compound `O=[N+]([O-])C(/C(Cl)=C(/Cl)N1CCOCC1)=C1\NCCO1`, the GI50 was inactive: > 100 µM.

On to `CN1CCN(C(=O)c2cn(Cc3cncn3Cc3ccc4c(c3)OCO4)cc2-c2cccc3ccccc23)CC1`, for which the GI50 is inactive: 10.2 µM.

Turning to `CCN1CCC(O)(c2ccc(OC)cc2)C(C(=O)c2ccc(OC)cc2)C1` (stereo not drawn), the GI50 is inactive: 39.7 µM.

Consider `COc1ccc(OC)c2[s+]snc12`, for which the GI50 was inactive: > 100 µM.

Regarding `O=C(CCl)N1CCCCC1C1(c2cc3ccccc3[nH]2)OCCO1` (stereo not drawn), the GI50 was inactive: 5.16 µM.

As to `N/C(=N\O)N/N=C\c1ccc(O)c(O)c1O`, the GI50 was inactive: 19.6 µM.

In the case of `CN(CCCCN)c1ccc2c(=O)[nH][nH]c(=O)c2c1`, the GI50 is inactive: > 100 µM.

`CCOC(=O)C(NC(=O)CC)(Nc1ccccc1F)C(F)(F)F` (stereo not drawn): the GI50 was inactive: > 100 µM.

Consider `O=C1c2ccccc2CC12Cc1cc3c(cc1C2=O)CCC3` (stereo not drawn), for which the GI50 is inactive: > 100 µM.

On to `CCN(CC)CCO/N=C1\CC[C@H]2[C@@H]3CCc4cc(OC)ccc4[C@H]3CC[C@]12C`, for which the GI50 is inactive: 2.63 µM.

Consider `C1=N\c2ccc(cc2)/N=C\c2ccc(cc2)OCc2cccc(n2)COc2ccc/1cc2`, for which the GI50 was inactive: > 100 µM.

As to `Cc1cc(C)c2c(n1)S(=O)(=O)N(CCCN1CCN(c3cccc(Cl)c3)CC1)C(C(=O)c1ccc(Br)cc1)=C2O`, the GI50 was inactive: 18.1 µM.

Regarding `COc1cc2c(c(OC)c1)C(=O)O[C@H](C)CCCC/C=C/C2`, the GI50 is inactive: 32.4 µM.

`Nc1nncc2c1c(Br)cn2C1OC(CO)C(O)C1O` (stereo not drawn): the GI50 is inactive: 21.7 µM.

Regarding `COC1(OC)C[C@H](C)[C@@]23O[C@]24c2cc(O)c5c(c2N[C@H]3C#C/C=C\C#C[C@]14O)C(=O)c1ccccc1C5=O`, the GI50 was active: 0.0168 µM.

With `COC(=O)C(CBr)CBr`, the GI50 is inactive: 16.3 µM.

As for `Nc1ccc(C(=O)N/C(=C\c2cccc([N+](=O)[O-])c2)c2nc3ccccc3[nH]2)cc1`, the GI50 was inactive: > 100 µM.

For `C=C1C(C)C2C(Cc3ccccc3)NC(=O)C23OC(=O)/C=C\CC(=O)CCC(C)C/C=C/C3C1O` (stereo not drawn), the GI50 was inactive: 10.2 µM.

Consider `CN(C)C(=O)/N=c1\ss/c(=N\C(=S)N(C)C)n1-c1ccccc1`, for which the GI50 was inactive: 61.4 µM.

For `COc1cc2c(cc1O)[C@@]1(Cc3ccc(OC)c(OC)c3)CCC(=O)N1CC2`, the GI50 was inactive: > 100 µM.

Take `CC(=O)Oc1c(C)c(-c2ccccc2)c(C)c(-c2ccccc2)c1C(=S)c1ccccc1`: the GI50 was inactive: > 100 µM.

As to `Cc1cc(C)nc(NS(=O)(=O)c2ccc(Nc3c4ccc(Cl)cc4nc4c(C(=O)Nc5ccc(S(=O)(=O)N=C(N)N)cc5)cccc34)cc2)n1`, the GI50 was inactive: 37.8 µM.

Turning to `CC1COC(c2cn[nH]c2C(N)=O)C1O` (stereo not drawn), the GI50 is inactive: > 100 µM.

Regarding `Cc1ccc(S(=O)OC23CC4CC(CC(C4)C2)C3)cc1` (stereo not drawn), the GI50 was inactive: > 100 µM.

For `NC(=O)c1ccc(S(=O)(=NS(=O)(=O)c2ccccc2)c2ccc(C(N)=O)cc2)cc1`, the GI50 was inactive: > 100 µM.

For `COc1c(CC(C)=O)ccc2c1C(=O)c1ccc(C=O)c(OC(C)=O)c1C2=O`, the GI50 is inactive: 18.3 µM.

Regarding `NCCn1cnc2nc(NC(=O)c3ccccc3)[nH]c(=O)c21`, the GI50 was inactive: > 100 µM.

Turning to `COc1nc(NC2OC(COC(C)=O)C(OC(C)=O)C(OC(C)=O)C2OC(C)=O)c(-c2csc(N)n2)c(=O)n1C` (stereo not drawn), the GI50 was inactive: > 100 µM.

With `CN(C)C(=O)Oc1ccc(C(=S)Nc2ccccc2)cc1Br`, the GI50 is inactive: 41.8 µM.

In the case of `O=C(Nc1nn(C(=O)c2cccnc2)c(=O)s1)c1ccc(Cl)cc1`, the GI50 is inactive: > 100 µM.

For the compound `CSC(=S)N/N=C(\C)c1ccc(S(=O)(=O)N(C)c2ccccc2)cc1`, the GI50 is inactive: 67.6 µM.

On to `CC(C)CC(NC(=O)OC(C)(C)C)C(=O)Nc1ccc(Nc2nc(F)nc(-c3c4ccccc4cn3C)n2)cc1` (stereo not drawn), for which the GI50 was inactive: 15.7 µM.

As to `Cc1cc(OP2(=O)NCc3ncccc3O2)ccc1Cl` (stereo not drawn), the GI50 was inactive: > 100 µM.

With `COc1cc(/C=C2\N=C(c3ccccc3)N(c3nc4cc(C)c(C)cc4s3)C2=O)cc(OC)c1OC`, the GI50 was inactive: 31.3 µM.

For `O=C1c2ccc3cc(CCl)cc(O)c3c2C(=O)c2cccc(O)c21`, the GI50 was inactive: 3.84 µM.

Consider `COc1ccc(/C=c2\c(=O)[nH]c3nc4ccccc4c(=O)n23)cc1`, for which the GI50 was inactive: 74.8 µM.

On to `C/C=C/CC(S(=O)(=O)c1ccccc1)S(=O)(=O)c1ccccc1`, for which the GI50 was inactive: > 100 µM.

Regarding `CCOC(=O)c1cc(C(=O)c2ccccc2)n2nc(-c3ccc(Cl)cc3)ccc12`, the GI50 is inactive: 19.9 µM.

For the compound `Cc1ccc(Cc2n[nH]c(=O)n2/N=C\CC/C=N\n2c(Cc3ccc(C)cc3)n[nH]c2=O)cc1`, the GI50 is inactive: > 100 µM.

In the case of `CC1OC(c2ccc3c(c2O)C(=O)C2=C(C3=O)C3(O)C(=O)CC(C)(O)CC3(O)C=C2)CC(O)C1O` (stereo not drawn), the GI50 is inactive: 30.8 µM.

For the compound `CCOCN1COCN/C1=N/C#N`, the GI50 is inactive: > 100 µM.

With `CC[C@H](C)[C@H](NC(=O)[C@@]1(O)[C@H](O)[C@]2(CC)C=CCN3CC[C@@]4(c5cc(Br)c(OC)cc5N(C)[C@@H]14)[C@@H]32)C(=O)OC`, the GI50 was inactive: 35.1 µM.

Turning to `O=C1Nc2ccccc2Nc2ccncc21`, the GI50 is inactive: > 100 µM.

Take `CCCCNC(=O)CCN(C(=O)O)S(=O)(=O)c1ccc(NC(=O)c2ccccc2)cc1`: the GI50 is inactive: > 100 µM.

Consider `CN1N=C2c3ccccc3CC[C@H]2C1c1cccc(O)c1` (stereo partly drawn), for which the GI50 was inactive: > 100 µM.

For `CCCCn1c(O)nc2c(N)ncnc21`, the GI50 was inactive: > 100 µM.

As to `Nc1n[n+]([O-])c2cc([N+](=O)[O-])ccc2[n+]1[O-]`, the GI50 is inactive: 22.9 µM.

Regarding `CCOC(=O)N1CCC(N[C@@H]2c3cc4c(cc3[C@@H](c3cc(OC)c(O)c(OC)c3)[C@H]3C(=O)OC[C@@H]32)OCO4)CC1`, the GI50 is inactive: 8.04 µM.

With `N#CC(=S)Nc1ccc(Cl)c(Cl)c1`, the GI50 was inactive: 35.9 µM.

As to `CCC(Cc1cnc2nc(N)nc(N)c2n1)c1ccc(C(=O)NC(CCC(=O)O)C(=O)O)cc1` (stereo not drawn), the GI50 was active: 0.014 µM.
